Residue numbers refer to the chain shown, from its start. Some of the results follow.

Binding signal data for 9 molecules are collected here from publication PMC9911399, “Two distinct binding modes provide the RNA-binding protein RbFox with extraordinary sequence specificity”.

B1: CGCUGUG (DNA:RNA)
RNA: GGGAGACCGGAAUUCAGAUUGUCCCGCUGUGUUAAAUCCCGUCGUAGCCACCA
DNA 1: CAATCTGAATTCCGGTCTCCC
DNA 2: TGGTGGCTACGACGGGATT
B2: GAACAGA (DNA:RNA)
RNA: GGGAGACCGGAAUUCAGAUUGUCCGAACAGAUUAAAUCCCGUCGUAGCCACCA
DNA 1: CAATCTGAATTCCGGTCTCCC
DNA 2: TGGTGGCTACGACGGGATT
B3: UGCCUUA (DNA:RNA)
RNA: B1 RNA with C25U, U28C, G29U, G31A
DNA 1: CAATCTGAATTCCGGTCTCCC
DNA 2: TGGTGGCTACGACGGGATT
B4: UUAAAUA (DNA:RNA)
RNA: B2 RNA with G25U, A26U, C28A, G30U
DNA 1: CAATCTGAATTCCGGTCTCCC
DNA 2: TGGTGGCTACGACGGGATT
B5: CGCGCUA (DNA:RNA)
RNA: B1 RNA with U28G, G29C, G31A
DNA 1: CAATCTGAATTCCGGTCTCCC
DNA 2: TGGTGGCTACGACGGGATT
B6: UUCUUCC (DNA:RNA)
RNA: B1 RNA with C25U, G26U, G29U, U30C, G31C
DNA 1: CAATCTGAATTCCGGTCTCCC
DNA 2: TGGTGGCTACGACGGGATT
B7: GCCUGCU (DNA:RNA)
RNA: B1 RNA with C25G, G26C, U30C, G31U
DNA 1: CAATCTGAATTCCGGTCTCCC
DNA 2: TGGTGGCTACGACGGGATT
B8: UUCGACC (DNA:RNA)
RNA: B1 RNA with C25U, G26U, U28G, G29A, U30C, G31C
DNA 1: CAATCTGAATTCCGGTCTCCC
DNA 2: TGGTGGCTACGACGGGATT
B9: AAGAUCC (DNA:RNA)
RNA: B2 RNA with G25A, A27G, C28A, A29U, G30C, A31C
DNA 1: CAATCTGAATTCCGGTCTCCC
DNA 2: TGGTGGCTACGACGGGATT

The target of the assay is T1, RBFOX1 RRM RbFoxmut (Fox-RRM*) (Homo sapiens, UniProt Q9NWB1 109-208, R118D;E147R;N151S;E152T).
T1 sequence: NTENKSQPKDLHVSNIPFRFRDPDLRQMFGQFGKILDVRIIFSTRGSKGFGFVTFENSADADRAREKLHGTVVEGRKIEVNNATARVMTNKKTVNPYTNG
Kind of assay: EMSA; HiTS-Eq, 1 nM pool, 10 min; buffer printed only for the single-RNA assays: 10 mM Tris pH 7.5, 150 mM NaCl, 3.4 mM EDTA, 0.001% NP-40, 30 C. The following applies: tags: His6 N-terminal (pET28a); label: 5' 32P. Summed up:
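A pool of RNA with 7 randomized nucleotides, 5′-radiolabelled and with DNA-annealed flanks, was equilibrated at 1 nM for 10 min in 50 µL with purified RbFox RRM, wild type or mutant, across increasing protein concentrations. Free RNA was separated by 8% native PAGE, excised, reverse-transcribed, barcoded by PCR and sequenced. Relative association constants were obtained from read-count changes of each RNA species versus the control reaction and normalised to the cognate motif.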
Background: Mobility shift assays separate free from complexed probe on a gel.
With B1, the binding signal is 0.143 KA relative to UGCAUGU. The value for B2 was 0.102 KA relative to UGCAUGU; that for B3 was 0.155 KA relative to UGCAUGU; that for B4 was 0.0917 KA relative to UGCAUGU.

B5: the binding signal was 0.103 KA relative to UGCAUGU.

Take B6: the binding signal was 0.0504 KA relative to UGCAUGU. B7: the binding signal was 0.127 KA relative to UGCAUGU. For the molecule B8, the binding signal was 0.059 KA relative to UGCAUGU. On to B9, for which the binding signal was 0.0854 KA relative to UGCAUGU.
